# Results published in PubChem BioAssay AID504332 (National Center for Advancing Translational Sciences (NCATS), 2011).
# In all, about 350,000 compounds went through this assay and about 31,000 (8.9%) were called active. The inconclusive results got no clear call from the source; some entries with a clear call stand among them for comparison. The call rests on the fitted dose curve; in most records, active means well fitted inhibition curve with a large enough effect; inconclusive means small, poorly fitted or top-dose-only effect; inactive means no such curve, though single readings can be large or run the other way. Where the call is inconclusive, the potency comes from a doubtful curve fit.
# Target: Histone-lysine N-methyltransferase EHMT2 (Homo sapiens) (UniProt Q96KQ7)
# Sequence of UniProt Q96KQ7 (Q96KQ7 whole entry, looked up): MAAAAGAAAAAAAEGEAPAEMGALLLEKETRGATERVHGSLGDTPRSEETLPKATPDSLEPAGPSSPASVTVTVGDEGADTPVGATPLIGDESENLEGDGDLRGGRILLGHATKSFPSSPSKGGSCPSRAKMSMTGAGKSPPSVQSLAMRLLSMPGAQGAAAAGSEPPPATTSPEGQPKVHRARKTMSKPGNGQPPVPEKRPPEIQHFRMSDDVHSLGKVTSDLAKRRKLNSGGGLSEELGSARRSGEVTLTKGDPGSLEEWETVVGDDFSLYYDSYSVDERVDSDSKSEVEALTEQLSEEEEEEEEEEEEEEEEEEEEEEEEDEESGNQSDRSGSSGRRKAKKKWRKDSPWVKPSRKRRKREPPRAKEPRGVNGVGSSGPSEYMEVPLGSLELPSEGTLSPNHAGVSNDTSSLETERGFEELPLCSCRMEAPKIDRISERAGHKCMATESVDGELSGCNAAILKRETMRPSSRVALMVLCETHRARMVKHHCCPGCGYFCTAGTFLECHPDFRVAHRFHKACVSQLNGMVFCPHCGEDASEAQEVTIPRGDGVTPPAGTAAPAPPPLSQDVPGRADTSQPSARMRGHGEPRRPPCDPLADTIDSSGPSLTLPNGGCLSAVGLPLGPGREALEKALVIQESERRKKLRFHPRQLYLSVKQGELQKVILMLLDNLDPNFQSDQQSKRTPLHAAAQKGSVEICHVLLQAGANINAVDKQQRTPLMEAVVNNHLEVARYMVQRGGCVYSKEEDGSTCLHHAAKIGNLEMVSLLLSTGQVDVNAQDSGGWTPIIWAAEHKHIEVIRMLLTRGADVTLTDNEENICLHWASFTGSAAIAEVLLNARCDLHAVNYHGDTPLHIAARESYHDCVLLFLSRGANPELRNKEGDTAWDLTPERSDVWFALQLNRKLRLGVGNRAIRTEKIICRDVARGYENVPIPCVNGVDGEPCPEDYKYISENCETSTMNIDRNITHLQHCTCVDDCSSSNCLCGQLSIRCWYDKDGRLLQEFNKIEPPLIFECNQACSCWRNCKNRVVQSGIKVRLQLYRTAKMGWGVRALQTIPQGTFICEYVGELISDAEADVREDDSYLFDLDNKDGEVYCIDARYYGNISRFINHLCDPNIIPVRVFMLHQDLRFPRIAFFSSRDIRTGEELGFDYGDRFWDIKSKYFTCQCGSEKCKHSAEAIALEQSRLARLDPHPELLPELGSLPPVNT
# Experiment: qHTS Assay for Inhibitors of Histone Lysine Methyltransferase G9a; further: nearly all actives have a fitted effect of over 75% in size
# Settings: G9a H3K9 monomethylation, AlphaScreen, 2 h; activity, negative = inhibition: at 59 µM (top of the series) unless noted
# Summary of the method: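 Using a bead-based AlphaScreen, monomethylated H3K9 product from 2 h room-temperature reactions (G9a 20 nM, peptide 500 nM, SAM 20 uM) was detected with 0.5 ug/mL rabbit anti-H3K9me1 antibody.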
# On the % scale 0 is the no-effect control and ±100 the full control effect; potency means the concentration at half of the fitted maximal effect; tags describe the fitted curve by direction and shape.
SMILES,Potency,"activity, negative = inhibition"
COC(=O)c1sc2nc(-c3ccccc3)nc(N3CCN(C)CC3)c2c1C,"inconclusive: 10 µM [inhibitor, single point]",
CC(C)c1ccc(OCC(=O)Nc2ccc(S(=O)(=O)Nc3ncccn3)cc2)cc1,inactive,
Cc1onc(-c2ccccc2Cl)c1C(=O)N1CCN(c2ccc(F)cc2)CC1,inactive,
CC(=O)N1CCCc2cc(S(=O)(=O)N(C)CC(=O)Nc3ccc(C(C)C)cc3)ccc21,inactive,
CCN1CCN(CC(=O)Nc2c(OC)cccc2OC)CC1,active: 39.8 µM,
Cc1cc(C)cc(NC(=O)CSc2nc(N)c(NC(=O)c3cccs3)c(=O)[nH]2)c1,active: 11.2 µM,
Cn1c(SCc2ccccc2)nnc1C1CCCNC1 (stereo unspecified),"inconclusive: 2.82 µM [inhibitor, partial curve, poor fit]",
N#C/C(=C\c1ccco1)Sc1nc2ccccc2s1,,inconclusive: -59.2% [inhibitor]
N=c1ccn(Cc2ccccc2Cl)cc1,"inconclusive: 89.1 µM [inhibitor, partial curve, poor fit]",
O=S(=O)(c1ccc(S(=O)(=O)N2CCC(O)CC2)cc1)N1CCCC1,inactive,
CC1=NNC(=O)/C1=C\c1cn(-c2ccccc2)nc1-c1ccc(Cl)cc1,,inactive: -7.25% [at 12.7 µM]
O=C1CC(c2ccccc2)Sc2ccccc2N1Cc1ccccc1F (stereo unspecified),inactive,
CC(C)c1ccc(/C=C(\NC(=O)c2ccccc2)C(=O)NCCN2CCOCC2)cc1,inactive,
CC(C)OC(=O)c1c(NC(=O)c2cccc(C(F)(F)F)c2)sc2c1CCCC2,"inconclusive: 39.8 µM [inhibitor, single point]",
O=[N+]([O-])c1cc(Oc2cccnc2)cc([N+](=O)[O-])c1,"inconclusive: 79.4 µM [inhibitor, single point]",
CCOc1ccc(NC(=O)c2cc(-c3ccc(C)c(F)c3)on2)c([N+](=O)[O-])c1,"inconclusive: 28.2 µM [inhibitor, single point]",
CCC(C(=O)Nc1ccccc1N1CCCC1)c1ccccc1 (stereo unspecified),"inconclusive: 89.1 µM [inhibitor, single point]",
COc1ccc(-c2sc3ccc(OC)cc3c2C#CCCO)cc1,active: 35.5 µM,
COc1ccc(-c2csc(NC(=S)NC(=O)c3ccc(S(=O)(=O)N(C)C)cc3)n2)cc1OC,"inconclusive: 89.1 µM [inhibitor, single point]",
CN1CCN(NC(=O)c2cccc(S(=O)(=O)N3CCCCCC3)c2)CC1,"inconclusive: 39.8 µM [inhibitor, partial curve, poor fit]",
Cc1cc(C)cc(OCCN2CCOCC2)c1,active: 11.2 µM,
CC(C)(C)c1ccc(C(=O)NCC(c2ccco2)S(=O)(=O)c2ccccc2)cc1 (stereo unspecified),inactive,
CCOC(=O)c1ccccc1NC(=O)c1cccc2c1C(=O)N(C1CCN(C(=O)OCC)CC1)C2,"inconclusive: 89.1 µM [inhibitor, single point]",
CCN(CC)S(=O)(=O)c1ccc2c(c1)N(CC(=O)Nc1ccc(Cl)cc1)C(=O)C1CCCN21 (stereo unspecified),"inconclusive: 31.6 µM [inhibitor, single point]",
CC[C@@](C)(NS(=O)(=O)OCC(Cl)(Cl)Cl)c1ccccc1,inactive,
O=C(Cc1cccs1)Nc1nnc(Cc2ccccc2)s1,"inconclusive: 25.1 µM [inhibitor, single point]",

SMILES,Potency,"activity, negative = inhibition"
CC(/C=N/n1c(-c2ccccn2)n[nH]c1=S)=C\c1ccccc1,active: 1.58 µM,
CC1=C(C(=O)Nc2ccccc2)C(c2ccccn2)n2nc(SCc3ccccc3)nc2N1 (stereo unspecified),"inconclusive: 3.16 µM [inhibitor, partial curve]",
COc1cc(CN2CCCCCC2)cc(OC)c1OC,active: 31.6 µM,
Cc1ccccc1NS(=O)(=O)c1ccc(C)c(C(N)=O)c1,inactive,
CNC(=O)c1ccc(-n2cccn2)nc1,inactive,
O=P(O)(c1ccccc1)c1ccccc1O,inactive,
CSc1ccc(CNC(=O)C2Cc3cc(S(=O)(=O)N4CCCCC4)ccc3N2C(C)=O)cc1 (stereo unspecified),"inconclusive: 89.1 µM [inhibitor, single point]",
CCCCCOc1ccc(NC(=O)Cn2c(-c3nonc3N)nc3ccccc32)cc1,"inconclusive: 39.8 µM [inhibitor, single point]",
COC(=O)c1[nH]c2ccccc2c1NS(=O)(=O)c1ccc(F)c(C)c1,"inconclusive: 79.4 µM [inhibitor, single point]",
COc1cccc(C(=O)Nc2nc(-c3nnn(-c4ccccc4C(F)(F)F)c3C)ns2)c1,inactive,
Cc1cc(C)c(OCC(=O)OCC(=O)N2c3ccccc3CC2C)c(C)c1 (stereo unspecified),inactive,
COc1ccc(NC(=O)c2cc([N+](=O)[O-])ccc2NC(=O)CNCc2ccccn2)c(OC)c1,active: 28.2 µM,
Cc1nn(-c2ccccn2)c2c1C(c1c(F)cccc1Cl)C1=C(N2)c2ccccc2C1=O (stereo unspecified),"inconclusive: 8.91 µM [inhibitor, full curve, poor fit]",
OC(COC(c1ccc(F)cc1)c1ccc(F)cc1)CN1CCc2ccccc2C1 (stereo unspecified),active: 4.47 µM,
COc1cccc(CNC(=O)Cn2nc(C)n3c(cc4cc(C)ccc43)c2=O)c1OC,inactive,
Cc1ccc(Cn2ncc3c(NCCCN4CCOCC4)ncnc32)cc1,"inconclusive: 50.1 µM [inhibitor, partial curve]",
CCCCN1C(=O)C(O)(CC(=O)c2ccc(CC)cc2)c2cc(Br)ccc21 (stereo unspecified),"inconclusive: 0.316 µM [inhibitor, full curve]",
Cc1ccc(-c2noc(C3CCCN(C(=O)c4ccccc4)C3)n2)o1 (stereo unspecified),,inconclusive: -87.7% [inhibitor]
Cc1ccc2nc3c(cc(C#N)c(=N)n3CC3CCCO3)c(=O)n2c1 (stereo unspecified),"inconclusive: 70.8 µM [inhibitor, partial curve, poor fit]",
CC(C)(C)c1cc(CSC(=S)NC2CCS(=O)(=O)C2)c(Br)c(C(C)(C)C)c1 (stereo unspecified),,inconclusive: -55.9% [inhibitor]
Cc1ccc(S(=O)(=O)Nc2cc(=O)[nH]c(SCC(=O)Nc3cccc(C)c3)n2)cc1,inactive,
c1ccc(CN2CCC(=NNc3nc4ccccc4[nH]3)CC2)cc1,inactive,
O=C(CN(C1CCCCC1)C1CCCCC1)N1CCc2ccccc2C1,active: 10 µM,
CC(=O)c1ccc(NC(=O)CN2CCCCCC2)cc1,inactive,
c1ccc2c(CNc3ccc(CNc4ncn[nH]4)cc3)cccc2c1,"inconclusive: 39.8 µM [inhibitor, single point]",
Fc1ccc(-c2onc3ccc(C4OCCO4)cc23)cc1,inactive,

SMILES,Potency,"activity, negative = inhibition"
COc1cc(C2Nc3ccc4ncccc4c3C3=C2C(=O)CCC3)ccc1O (stereo unspecified),active: 50.1 µM,
CCC(=O)c1ccc(OCc2ccccc2)c(OC)c1,inactive,
C=CCN1C(=O)C(CC(=O)Nc2ccc(OC)cc2)SC1=Nc1ccc(S(N)(=O)=O)cc1 (stereo unspecified),"inconclusive: 70.8 µM [inhibitor, single point]",
CC(=O)O[C@H]1CC(C)(C)C(=C=C/C(C)=C/C=C/C(C)=C/C=C/C=C(C)/C=C/C=C(\C)C(=O)C[C@@]23O[C@]2(C)C[C@@H](O)CC3(C)C)[C@](C)(O)C1,"inconclusive: 6.31 µM [inhibitor, single point]",
COc1cccc(C(=O)Nc2ccc3nc4n(c(=O)c3c2)CCCC4)c1,inactive,
COCCN1C(=O)N(c2cccc(OC)c2)C(=O)C1CC(=O)Nc1ccc(OC)cc1 (stereo unspecified),inactive,
CNc1nc(CC(C)=O)ns1,active: 79.4 µM,
Cc1cccc(N2NC(=O)/C(=C/c3ccc(-c4ccc(Cl)c(C(=O)O)c4)o3)C2=O)c1,active: 12.6 µM,
COc1cccc(C2=CC(c3ccccc3F)n3ncc(C(=O)Nc4ccc(F)cc4)c3N2)c1 (stereo unspecified),"inconclusive: 7.94 µM [inhibitor, partial curve]",
O=C(N/N=C/c1oc(O)c2ccccc12)c1ccccc1,active: 11.2 µM,
COC(=O)c1ccc(C(=S)N2CCOCC2)cc1,,inconclusive: -117% [inhibitor]
Cc1ccc(Nc2c(-c3cccnc3)nc3ccc(C)cn23)cc1,"inconclusive: 6.31 µM [inhibitor, partial curve, poor fit]",
O=C(COc1ccc(C2SCCS2)cc1)NNC(=O)C(Cl)Cl,inactive,
NC(=O)c1ccc(N=Cc2ccc([N+](=O)[O-])s2)cc1,"inconclusive: 31.6 µM [inhibitor, single point]",
Cc1nn(Cc2ccc(C(=O)NC3CCCCC3)o2)c(C)c1Br,,inactive: -31.3% [at 12.7 µM]
CN(C(=O)COC(=O)CCc1c[nH]c2ccccc12)C(c1ccccc1)c1ccccc1,active: 12.6 µM,
CCc1nn(CC(=O)N2CCN(c3cccc(C)c3)C(C)C2)c(=O)c2cc3sccc3n12 (stereo unspecified),"inconclusive: 0.562 µM [inhibitor, partial curve, poor fit]",
COc1ccc(NC(=O)c2cc(-c3cc(Cl)ccc3O)n[nH]2)c(OC)c1,"inconclusive: 89.1 µM [inhibitor, single point]",
CCOC(=O)N1CCC(NC(=O)CS(=O)(=O)Cc2nc(-c3ccccc3Cl)oc2C)CC1,"inconclusive: 89.1 µM [inhibitor, single point]",
Cc1ccc(CN(C)CC(=O)NC(C)c2ccccc2)cc1 (stereo unspecified),inactive,
CCn1c(SCC(=O)NNC(=O)c2ccc(OC)cc2)nnc1C1CC1,inactive,
CCn1c2ccccc2c2cc(NC(=O)CSc3nccc(=O)[nH]3)ccc21,active: 35.5 µM,
c1ccc(CSc2snnc2-c2ccccc2)cc1,inactive,
CCN1CCN(CC(=O)Nc2ccc(OC(F)(F)F)cc2)CC1,"inconclusive: 79.4 µM [inhibitor, single point]",
